The list shows a part of the results.
System: S. aureus RN4220
Experiment: growth inhibition call (relative growth <= 0.2)
Conditions: 50 µM

Growth inhibition call, inactive:
C[C@H]1CCCCO[C@H](CN(C)Cc2ccccc2)[C@@H](C)CN([C@@H](C)CO)C(=O)c2cc(NC(=O)Nc3ccccc3)ccc2O1, Cc1cnc(CNC(=O)c2c(=O)c3ccc(N4CCCN(C)CC4)nc3n3c2sc2ccccc23)cn1, C[C@@H]1CN([C@H](C)CO)C(=O)c2cc(NS(=O)(=O)c3ccc(F)cc3)ccc2O[C@@H]1CN(C)C(=O)Nc1ccc(C(F)(F)F)cc1, COc1ccc(NC(=O)Nc2ccc3c(c2)C(=O)N([C@@H](C)CO)C[C@@H](C)[C@H](CN(C)C(=O)Nc2ccccc2)OCCCC[C@H](C)O3)cc1, COc1ccc(NC(=O)Nc2ccc3c(c2)C(=O)N([C@H](C)CO)C[C@H](C)[C@@H](CN(C)S(C)(=O)=O)O3)cc1, C[C@H](CO)N1C[C@H](C)[C@H](CN(C)Cc2ccc(C(F)(F)F)cc2)OCc2ccccc2-c2c(n(C)c3ccccc23)C1=O, CC(C)(C)OC(=O)C[C@H]1CC=CC[C@@H](CC(=O)NCCO)C(=O)N[C@@H](Cc2ccccc2)COC1=O, C[C@H]1CN([C@@H](C)CO)C(=O)CCCn2cc(nn2)CO[C@H]1CN(C)C(=O)c1ccc(N2CCN(C)CC2)cc1, Cc1noc(C)c1S(=O)(=O)N(C)C[C@@H]1Oc2ccc(NC(=O)Cn3cnnn3)cc2CC(=O)N([C@@H](C)CO)C[C@@H]1C, Cc1ccc(S(=O)(=O)N(C)C[C@@H]2Oc3ccc(NC(=O)CCCN(C)C)cc3CC(=O)N([C@H](C)CO)C[C@H]2C)cc1
